Measured values as given in PubChem BioAssay AID1508624 (National Center for Advancing Translational Sciences (NCATS), 2021).
The campaign covered roughly 48,000 compounds. About 120 (0.25%) were called active. Roughly 4% stayed inconclusive and do not appear here. Calls follow the shape of the dose curve; as a rule, active = well fitted activation curve with a large enough effect; inconclusive = small, poorly fitted or top-dose-only effect, or another doubt; inactive = no such curve, though single readings can be large or run the other way. This is one part of the list.

Assay: Primary qHTS for Identification of Small Molecule Activators of Huntingtin-Antisense Promoter Activity; also: nearly all actives have a fitted effect of over 55% in size
Conditions: HEK293 HTT-AS promoter firefly luciferase reporter, 24 h; series mostly up to 57.5 µM; activity change, positive = activation: at the top concentration
How it was run: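 Firefly luciferase readout (Dual-Glo, 10 min RT) after 24 h, 37 °C compound exposure (final up to 57.5 uM) of HEK293 reporter cells cultured 24 h beforehand; PTC124 at 50 uM final as control inhibitor; activity scaled vehicle 0%, zero RLU -100%.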

Activity change, positive = activation, inactive:
COc1cc(Cl)c(C)cc1NC(=O)Cn1c(C)c2cnn(-c3ccccc3)c(=O)c2c1C -0.338%, CC(=O)Nc1c(C)nn(-c2ccccc2)c1N1CCC(C(=O)NCc2ccc(F)cc2)CC1 27.4%, C=C(C)Cn1c(SCC(=O)c2ccccc2)nc2sc3c(c2c1=O)CCCC3 -21.5%, O=C(Nc1cccc(C(F)(F)F)c1)C1CCN(S(=O)(=O)c2cccs2)CC1 -39.2%, CCOCCn1c(N2CCCN(C)CC2)nc2ccccc21 -9.93%, CCn1cc2nc(SCc3cccc(C(F)(F)F)c3)n(Cc3ccc(OC)cc3)c(=O)c2n1 -30.8%, O=C(CNC(=O)c1ccccc1)OCc1cc(=O)n2nc(C3CC3)sc2n1 -13.3%, O=c1c2oc3ccccc3c2n(Cc2ccc(Cl)cc2)c(=O)n1Cc1ccccc1 -15.1%, CCC1CCCCN1C(=O)CCS(=O)(=O)c1cc2c(cc1C)NC(=O)CO2 (stereo unspecified) -8.1%, CC=CCC=CCCC(=O)[C@H]1O[C@@H]1C(N)=O -3.91%, Cc1cc(C)cc(-n2c(SCC(=O)N3CCCCCC3)nc3c([nH]c4ccccc43)c2=O)c1 -5.55%, CC1(C)OC(=O)Nc2ccc(Br)cc21 -2.87%, CCS(=O)(=O)c1ncc(Cl)c(C(=O)NCc2ccccc2)n1 -94.4%, O=C(Nc1cc(F)ccc1F)c1ccc(CN2CC(=O)N3CCCCC3C2=O)cc1 (stereo unspecified) -7.93%, COc1ccc(-c2cc(=O)oc3c4c(ccc23)OCN(Cc2ccccc2)C4)cc1 -18.6%, CCc1c(C)sc2c1CCN(C(=O)Nc1cc(C)ccc1C)C2c1ccc(OC)cc1 (stereo unspecified) -0.871%, CC[C@H](C)C(=O)O[C@H]1C[C@H](O)C=C2C=C[C@H](C)[C@H](CC[C@@H](O)C[C@@H](O)CC(=O)O)[C@H]21 -0.879%, COc1ccc(OC)c(CCNC(=O)Cn2nc(C)n3c(cc4sccc43)c2=O)c1 -10%, COc1ccc(-n2ncc(C(=O)NCCN3CCOCC3)c2C2CCN(C(=O)OC(C)(C)C)CC2)cc1 -1.31%, Cc1nc(-c2cccc(S(=O)(=O)N3CCC(C(=O)NCc4ccccc4Cl)CC3)c2)no1 -29.4%, Cn1nc(-c2ccccc2F)c2cc(C(=O)NCc3cccc(Cl)c3)sc21 -32.5%, Cc1cc(C)cc(NC(=O)c2cc(S(=O)(=O)N3CCCC3)ccc2F)c1 -17.7%, Cc1cccc(CSc2nnc(CCCCCN)o2)c1 -82.6%, Cc1ccc(C)c(NC(=O)c2nnn(Cc3ccc(F)cc3Cl)c2N)c1 -23.8%, CCC1Oc2ccccc2N(CC(=O)NCCc2ccc(OC)c(OC)c2)C1=O (stereo unspecified) -19%, COc1cc(OC)c(NC(=O)N2CCc3cc(S(=O)(=O)N4CCC(C)CC4)ccc32)cc1Cl -5.32%, O=c1oc2ccc3ccccc3c2cc1-c1nnc(Nc2cccc(C(F)(F)F)c2)s1 -7.38%, O=C(c1cc2c(s1)-c1ccccc1OC2)N1CCN(c2ccc(F)cc2)CC1 -20.5%, COc1cc2c(cc1NC(=O)COc1ccc(Cl)cc1)oc1ccccc12 14.3%, COc1ccc(NC(=O)Cn2c(=O)n(Cc3ccco3)c(=O)c3oc4ccccc4c32)cc1Cl -16.5%, COc1ccc(-n2ncc3c2ncn2nc(Cc4ccccc4)nc32)cc1 -2.34%, Cc1ccccc1CNCc1c(C(=O)O)c(C)n(Cc2ccc(F)cc2Cl)c1C -13.3%, CC(=O)Nc1ccc(C(=O)Nc2ccc3c(c2)N(C2CCCC2)C(=O)c2ccccc2S3)cc1 -46%, Cc1nnc(N2CCC(C(=O)NC(C)C)CC2)c2nn(-c3ccccc3)c(C)c12 -7.6%, Cc1cccn2c(=O)c(-c3nnn[nH]3)cnc12 5.15% [at 25.1 µM, percent change from vehicle, -100% = no light], Clc1ccccc1CN1CCc2nc(N3CCN(c4ncccn4)CC3)ncc2C1 -29.9%, O=C(Nc1ccc(F)cc1)c1cc2cc3ccc(Cl)cc3nc2o1 -2.86%, Cc1oc(-c2ccccc2Cl)nc1CS(=O)(=O)CC(=O)NC(C)c1ccccc1 (stereo unspecified) -26.5%, Cc1ccc2onc(CNC(=O)NCc3ccccc3)c2c1 3.15%, CCC(C(=O)Nc1ccccc1OC)n1c(C(=O)OC)cc2sc(Cl)cc21 (stereo unspecified) -11.7%, CCOCCCNC(=O)c1ccc2c(=O)n(CCc3ccc(OC)c(OC)c3)c(=O)[nH]c2c1 -11.7%, CC(=O)N1CCc2cc(S(=O)(=O)NC(CC(C)C)C(=O)NCCc3cccc(C)c3)ccc21 (stereo unspecified) 19%, CCOc1ccccc1CNC(=O)CSc1nnc(C)c2c(C)n(-c3ccccc3)nc12 -24.4%, O=c1[nH]c2ccc(NCc3ccc(-c4ccc(F)cc4)o3)cc2[nH]1 -24.1%, CC1CCC(NC(=O)Cn2ncc3c4ccccc4n(Cc4ccc(F)cc4)c3c2=O)CC1 (stereo unspecified) -3.61%, c1ccc2c(c1)ncc1nncn12 -11.4%, Cc1ccc(CN(C(=O)COc2ccc([N+](=O)[O-])cc2)c2ccccn2)o1 -10.2%, CCC1CCCCN1S(=O)(=O)c1cc2c(cc1C)NC(=O)CO2 (stereo unspecified) -26.4%, CC(=O)c1ccc(NC(=O)CSc2ccc3nnc(CCNS(=O)(=O)c4ccc(C)cc4)n3n2)cc1 -2.36%, Cc1ccc(Nc2ncc(C(=O)Nc3ccc(F)cc3F)c3ccccc23)cc1Cl -14.9%, CC(=O)c1cccc(NC(=O)C2CCN(S(=O)(=O)c3ccccc3)CC2)c1 3%, COc1ccc(CNC(=O)c2nn(C)c3c2CS(=O)(=O)c2ccccc2-3)cc1 -13.4%, CC1=C(C(=O)O)N2C(=O)[C@@H](NC(=O)[C@H](N)c3ccccc3)[C@H]2SC1 -0.73%, O=C(COc1ccccc1)Nc1nnc(SCc2cc(=O)n3cc(Cl)ccc3n2)s1 1%, COc1ccc(CCNC(=O)CCS(=O)(=O)c2cc3c(cc2Cl)NC(=O)CO3)cc1OC -12.4%, CCc1nnc(SCC(=O)Nc2cccc(C(F)(F)F)c2)c2cc3oc(C)cc3n12 -39.3%, CCCc1nn2cc(-c3ccc(C)c(C)c3)nc2s1 -35.9%, CCOC(=O)Cc1c(C)nc2c(-c3ccc(Cl)cc3)c(C(F)(F)F)nn2c1C -16.5%, COc1ccc(-c2noc(CSc3nnc(Cc4ccccc4)n3-c3cccc(C)c3)n2)cc1 -37.7%, COc1ccc(/C=C/C(=O)Nc2ccc3nc4c(c(Nc5ccc(OC)c(OC)c5)c3c2)CCCC4)cc1 -94.2%, CC1=C(C(=O)NCc2ccccc2F)C2(CCCCC2)OC1=O -8.15%, COCCNC(=O)c1nn(-c2ccc(C)cc2)c(=O)c2c1c1ccccc1n2C -8.47%, CO[C@@H]1C(N(C)C(=O)c2ccccc2)C[C@H]2O[C@]1(C)n1c3ccccc3c3c4c(c5c6ccccc6n2c5c31)C(=O)NC4=O (stereo partly specified) -34.1%, Cc1ccc(CCNC(=O)C2CCCN(c3nnc(C)c4c(C)n(-c5ccccc5)nc34)C2)cc1 (stereo unspecified) -10.2%, O=C(Nc1ccccc1Cl)N1CCC(CN2CCCC2)CC1 -13.8%, CC1=C(c2ccc(F)cc2)S(=O)(=O)N=C1N1CCC(C(=O)NCCc2cccc(C)c2)CC1 -20%, COc1cccc(-c2nc(CS(=O)(=O)CC(=O)NCc3cccc(Cl)c3)c(C)o2)c1 -19.8%, Cc1ccc(CSc2ncc(Cl)c(C(=O)Nc3nnc(C)s3)n2)cc1 -30.8%, Cc1ccc(NC(=O)CC2Oc3ccccc3NC2=O)cc1C (stereo unspecified) -3.66%, COc1ccc(-c2cnnn2-c2ccc(NC(=O)c3ccccc3OC)cc2)cc1 -12.7%, COc1ccc(CCNC(=O)CN2C(=O)COc3ccc(S(=O)(=O)N4CCCC4)cc32)c(OC)c1 -13.9%, Cc1c(C(=O)NCc2cccc(Cl)c2)sc2nc3n(c(=O)c12)CCCC3 21.1%, Cc1c(C(=O)NCc2cccc(Br)c2)oc2ccc3c(c12)C(=O)CC(C)(C)O3 22.3%, CCN(CC)CCCNC(=O)c1ccc(Cn2c(SCc3ccccc3)nc3cccnc32)cc1 15%, Cn1c(=O)n(Cc2c(F)cccc2Cl)c(=O)c2c1nc1n2CCN1c1ccc(F)cc1 -6.75%, COc1ccc(-c2nc3sc(CCNC(=O)C(=O)Nc4cccc(NC(C)=O)c4)c(C)n3n2)cc1 -17.4%, Nc1nn(-c2ccccc2)nc1C(=O)OCc1ccc(Cl)cc1 -5%, COc1c(C)cccc1C(=O)Nc1ccc(-c2nc3ccccc3s2)c(Cl)c1 -18.2%, CCNC(=O)C1CCN(S(=O)(=O)c2ccc3c(c2)CCCN3C(C)=O)CC1 -11.7%, CCOc1cc(C(=O)Nc2ccc(-c3cn4cccnc4n3)cc2)cc(OCC)c1OCC -17.3%, CCCN(CCC)c1ccc(C2N=C(N)Nc3nc4ccccc4n32)cc1 (stereo unspecified) -44.2%, O=C(NCc1ccccc1)c1ccc(NC(=O)N2CC3CCCN3c3ccccc32)cc1 (stereo unspecified) -16.2%, CCCCNC(=O)CCCCCn1c(=O)[nH]c2ccccc2c1=O -9.47%, Cc1ccc(S(=O)(=O)c2nnn3c2nc(NCc2ccc4c(c2)OCO4)c2sccc23)cc1C -27.3%, Cc1ccc(C)c(N2CCN(S(=O)(=O)c3cc(C(=O)Nc4ccc(Oc5ccccc5)cc4)ccc3F)CC2)c1 -40.7%, Cc1nc2ccccn2c(=O)c1NC(=O)c1ccc(F)c(F)c1 1.73%, Cc1cccc(NC(=O)C2CCCN2S(=O)(=O)c2ccc3nc(-c4ccccc4)[nH]c3c2)c1 (stereo unspecified) -23.8%, Cc1ccc2c(c1)c1c(c(=O)n(-c3ccccc3)c(=O)n1CC(=O)NCC1CCCO1)n2C (stereo unspecified) -5.73%, Cc1ccccc1OCCSc1nc2ccc(NC(=O)c3cccc(F)c3)cc2s1 -35.6%, O=C(NCc1ccc2c(c1)CCN2C(=O)c1ccccc1)Nc1cccc(C(F)(F)F)c1 -46.4%, COc1cc2ncc3c(-c4ccc(C)cc4)nn(-c4ccc(F)cc4F)c3c2cc1OC -4.61%, CN(C)CCCNc1cc(N2CCN(C3CCCCC3)CC2)c2noc3c2c1C(=O)c1ccccc1-3 -18.1%, COc1ccc(Cn2ccnc2SCC(=O)Nc2nc3ccccc3s2)cc1 -17.6%, Cc1ccc(NC(=O)CN2C(=O)c3cccnc3Oc3ccc(Cl)cc32)cc1 -39.8%, CC(=O)c1ccc(NC(=O)c2ccc3c(c2)N(Cc2cccc(Cl)c2)C(=O)c2ccccc2S3=O)cc1 (stereo unspecified) -31.4%, Cc1ccccc1-c1nc(CN2CCC(C(=O)NCc3ccc(F)cc3)CC2)c(C)o1 -30.9%
